PubChem BioAssay AID1745853 (National Center for Advancing Translational Sciences (NCATS), 2022)
Values joined by “and” are separate entries in the source; they are usually repeats but may differ in a detail not shown here. Equal values may be shown once. This is one part of the list. Shown are side measurements of this screen, not its main read-out; they come without a call.

Tests used:
Test in all cases: Primary Screen for Target Class Profiling of Small Molecule Inhibitors of Methyltransferases
[1] = molecular target: Glycine N-methyltransferase (Homo sapiens) (UniProt Q14749); settings: purified enzyme, MTase-Glo SAH luminescence; measured here: GNMT inhibition; at 40 µM; stronger effect = lower value
In short: (§1)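 Each enzyme was assayed with SAM and its substrate. SAH formation detected by MTase-Glo luminescence; single-point 40 uM screen[…].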

[2] = molecular target: Guanidinoacetate N-methyltransferase (Homo sapiens) (UniProt Q14353); settings: purified enzyme, MTase-Glo SAH luminescence; measured here: GAMT inhibition; at 40 µM; stronger effect = lower value
In short: as §1

[3] = molecular target: Histamine N-methyltransferase (Homo sapiens) (UniProt P50135); settings: purified enzyme, MTase-Glo SAH luminescence; measured here: HNMT inhibition; at 40 µM; stronger effect = lower value
In short: as §1

[4] = molecular target: Nicotinamide N-methyltransferase (Homo sapiens) (UniProt P40261); settings: purified enzyme, MTase-Glo SAH luminescence; measured here: NNMT inhibition; at 40 µM; stronger effect = lower value
In short: as §1

[5] = molecular target: Phenylethanolamine N-methyltransferase (Homo sapiens) (UniProt P11086); settings: purified enzyme, MTase-Glo SAH luminescence; measured here: PNMT inhibition; at 40 µM; stronger effect = lower value
In short: as §1
On the % scale 0 is the no-effect control and ±100 the full control effect.

SMILES	activity change, negative = inhibition [1]	activity change, negative = inhibition [2]	activity change, negative = inhibition [3]	activity change, negative = inhibition [4]	activity change, negative = inhibition [5]
O=C(c1cc(-c2ccccc2)nc2ccccc12)N1CCOCC(CO)C1 (stereo not drawn)	-1.83%	-0.217%	0.119%	0.559%	-3.33%
NC(=O)C1CCN(c2nc3c(S(=O)(=O)c4ccc(Br)cc4)nnn3c3ccccc23)CC1	-22.6%	-1.69%	-7.12%	-14.8%	-9.07%
COc1cccc(CN2C(=O)c3cc4oc(C)cc4n3CC2(C)C(=O)NC2CCCCCCC2)c1 (stereo not drawn)	-6.72%	0.484%	-6.85%	-8.11%	-3.82%
O=C(Nc1ccc(S(=O)(=O)Nc2nccs2)cc1)c1cc(-c2ccccc2)nc2ccccc12		-1.34%		-46.7%	-20.2%
O=C(CCc1nnc2n(Cc3ccc(Cl)cc3)c(=O)c3ccccc3n12)N1CC=C(c2ccccc2)CC1	2.04%	0%	8.14%	2.23%	0.731%
Cn1c(=O)c2ccc(C(=O)NC3CCCCC3)cc2n2c(SCc3ccc(Cl)cc3)nnc12	4.16%	1.15%	2.37%	1.47%	6.15%
CC1COC2(CCN(c3nc(=O)c4cc(C(F)(F)F)cc([N+](=O)[O-])c4s3)CC2)O1 (stereo not drawn)	7.81%	2.14%	4.73%	-14.2%	-9.54%
CC(C)(C)c1ccc(C(=O)NC(Cc2c[nH]c3ccccc23)C(=O)OCC(=O)c2ccc(Cl)cc2)cc1 (stereo not drawn)	-0.237%	3.26%	-5.22%	-6.79%	-4.99%
O=C(NCC(F)(F)F)c1ccc2nnc(-c3cncc(Cl)c3)n2c1	-3.99%	-2.49%	-1.62%	-13.9%	9.51%
Cc1c(Cl)cccc1N1C(=O)c2cc3sccc3n2CC1(C)C(=O)NC1CCCCCC1 (stereo not drawn)	3.24%	0%	0.113%	1.53%	-3.25%
CCN(CC)CCCNS(=O)(=O)c1ccc2[nH]c(=O)[nH]c2c1	8.47%	0.162%	-1.66%	1.4%	4.34%
O=C1C(Cl)=C(N2CCOCC2)C(=O)N1c1ccc(Cl)c(Cl)c1	1.71%	3.66%	4.27%	-8.86%	-5.27%
COc1ccc(C(=O)Nc2c(Cl)cncc2Cl)cc1OC1CCCC1	4.28%	0.528%	2.38%	-15.5%	-5.02%
CCOC(=O)c1ccc(NC(=O)Cn2c(=O)oc3cc(S(=O)(=O)N4CCCC4)ccc32)cc1	-9.44%	-13.5%	-11.8%	-19%	-32%
CC(C)CCn1c(=O)c2ccc(C(=O)NCC(C)C)cc2n2c(=O)n(Cc3ccccc3)nc12	7.94%	2.22%	9.15%	7.98%	9.57%
Cc1ccc(-c2cc(C(F)(F)F)nn2-c2ccc(S(N)(=O)=O)cc2)cc1	1.11% and -0.125%	3.87% and 8.16%	7.18% and 6.75%	-14.1% and -17.6%	0.5% and 6.82%
CN(C)c1ccc(CN2C(=O)c3ccc(-c4ccco4)n3CC2(C)C(=O)NCc2ccc(Cl)cc2)cc1 (stereo not drawn)	-11.2%	-12.3%	-1.3%	-19.9%	-12.4%
Cc1ccc(C(=O)Cn2nc3n(CC(C)C)c(=O)c4ccc(C(=O)NC5CCCCC5)cc4n3c2=O)cc1	8.58%	1.47%	11.2%	4.68%	6.8%
COc1ccc(CCNC(=O)c2cc3n(n2)CC(C)(C(=O)NC2CCCC2)N(C)C3=O)c(OC)c1 (stereo not drawn)	0.882%	2.66%	2.74%	0.924%	-0.024%
CC1(C(=O)NC2CCCCCC2)Cc2ccccc2C(=O)N1C1CCCCCC1 (stereo not drawn)	-1.84%	0%	12.4%	8.87%	2.07%

SMILES	activity change, negative = inhibition [1]	activity change, negative = inhibition [2]	activity change, negative = inhibition [3]	activity change, negative = inhibition [4]	activity change, negative = inhibition [5]
CC1CCC(NC(=O)C2(C)Cn3c(nc4ccccc43)C(=O)N2Cc2ccccc2F)CC1 (stereo not drawn)	-0.82%	4.1%	5.98%	1.04%	0.371%
CCc1cc2c(cc3n2CC(C)(C(=O)NC2CCCCC2)N(c2ccc(C)cc2)C3=O)s1 (stereo not drawn)	-5.92%	3.43%	-2.09%	3.06%	-5.96%
CC(C)C1c2cccn2CCN1C(=O)Nc1cccc(Cl)c1 (stereo not drawn)	2.39%	0%	-1.91%	-2.86%	-1.66%
O=C(NCc1ccncc1)c1ccc(-c2ccsc2)nc1	11.4%	2.64%	10.1%	6.6%	8.84%
COCCN1C(=O)c2c(-n3cccc3)c3cc(C)ccc3n2CC1(C)C(=O)NCCC(C)C (stereo not drawn)	2.43%	2.75%	2.05%	-12%	-5.11%
C[C@@H]1O[C@@H](O[C@H]2[C@H](OC(=O)[C@]34CCC(C)(C)C[C@H]3C3=CCC5[C@@]6(C)C[C@H](O)[C@H](O[C@@H]7O[C@H](CO)[C@@H](O)[C@H](O)[C@H]7O)[C@@](C)(CO)C6[C@H](O)C[C@@]5(C)[C@]3(C)CC4)OC[C@H](O)[C@@H]2O)[C@H](O)[C@H](O)[C@H]1O[C@@H]1OC[C@@H](O)[C@H](O[C@@H]2OC[C@](O)(CO)[C@H]2O)[C@H]1O (stereo partly drawn)	4.12%	4.44%	10.8%	-8.52%	7.94%
CCOC(=O)c1cc2n(n1)CC(C)(C(=O)NCc1ccccc1OC)N(Cc1ccccc1F)C2=O (stereo not drawn)	6.53%	1.52%	13.5%	4.61%	8.32%
Cc1cccc(OCC(=O)NCc2nnc3c(-c4nc(C)no4)cccn23)c1	-6.24%	-1.92%	-0.778%	-4.52%	-17.8%
CC(=O)O[C@@]1(C)C[C@@H](O)[C@]2(O)C=CO[C@@H](O[C@@H]3O[C@H](CO)[C@@H](O)[C@H](O)[C@H]3O)[C@@H]21	4.17%	7.97%	5.87%	-3.21%	7.25%
CN(C)C(=O)C1=NOC2CN(C(=O)C3CC3)CC12 (stereo not drawn)	-1.55%	-1.03%	-0.373%	-8.06%	-2.34%
COCCCN1C(=O)c2ccc(-c3ccco3)n2CC1(C)C(=O)NC1CCCCC1 (stereo not drawn)	2.96%	3.58%	6.16%	7.87%	0.98%
COc1ccccc1Oc1ncccc1CNC(=O)Nc1cccc(C#N)c1	-2.51%	-1.61%	1.27%	-8.29%	-1.31%
CCOc1ccccc1CN1C(=O)c2cc(C(C)(C)C)nn2CC1(C)C(=O)NCc1ccccc1 (stereo not drawn)	6.9%	0%	6.18%	-10.7%	-0.97%
COc1ccc(CNCC2(CO)C[C@@H](O)[C@@H](O)C2)cc1 (stereo partly drawn)	-3.73%	-6.72%	-1.88%	-10.3%	-3.99%
Cc1ccc(CN2C(=O)c3cc4ccccc4n3CC2(C)C(=O)NCCC(C)C)cc1 (stereo not drawn)	3.69%	0%	5.11%	2.86%	1.18%
O=C(CSc1nnc2n(Cc3ccccc3)c(=O)c3ccccc3n12)NCc1ccccc1	1.33%	0%	5.18%	-2.87%	-1.11%
CC(C)Cn1c(CN(C)CCC2CCCCO2)cnc1S(=O)(=O)Cc1ccccc1 (stereo not drawn)	-4.48%	1.46%	-2.39%	-5.13%	-7.55%
O=C(O)c1cccc(-c2noc(-c3ccccc3F)n2)c1	-19.7%	-22.3%	-8.39%	-26.1%	-12.5%
Nc1ccc(S(=O)(=O)Nc2nccs2)cc1	2.25%	5.65%	4.23%	-9.71%	0.592%
O=C(NCCc1ccco1)c1cc2n(n1)CCCN(Cc1ccc(Cl)cc1)C2=O	-8.97%	0%	0.677%	-3.38%	-0.932%

SMILES	activity change, negative = inhibition [1]	activity change, negative = inhibition [2]	activity change, negative = inhibition [3]	activity change, negative = inhibition [4]	activity change, negative = inhibition [5]
CNCC(O)c1ccc(O)c(O)c1 (stereo not drawn)	-9.05%	5.2%	1.87%	-7.92%	-26.3%
CN1CCC(c2cn(C)c3ccc(OS(=O)(=O)c4c(F)cccc4F)cc23)CC1	-3.28%	5.08%	-6.77%	-19.3%	3.04%
CCS(=O)(=O)N1CCC(c2noc(COc3ccc(F)cc3)n2)C1 (stereo not drawn)	-3.73%	-5.03%	-0.124%	-8.2%	-5.88%
c1cc(CN2CCCCC2)cc(OCCCNc2nc3ccccc3s2)c1	-3.17%	7.44%	-53.3%	-14.7%	4.16%
CC(=O)O[C@H]1C[C@@](O)(C(C)C)C2[C@@H](OC(=O)c3ccc(O)cc3)C[C@@]3(C)O[C@H]3C[C@]21C (stereo partly drawn)	-1.08%	2.23%	0.681%	-12.2%	-7.74%
CCn1c2ccccc2c2cc(CNC)ccc21	5.27% and 11.5%	-2.83% and 8.47%	-39.7% and -23.5%	-17.6% and -6.75%	-15.3% and 1.01%
COc1ccc(F)cc1-c1ccc(CN2CCC(N[S+](=O)([O-])c3cccs3)C2)cc1 (stereo not drawn)	-2.38%	-6.12%	-18.6%	-6.46%	-13.9%
CCC(O)CNC(=O)c1cn2cc(-c3ccc(F)cc3)n(CC=C(C)C)c(=O)c2n1 (stereo not drawn)	-14.3%	-2.51%	-2.13%	-11.5%	4.13%
CCCn1c(=O)c2ccc(C(=O)NCC(C)C)cc2n2c(SCC(=O)c3ccc(F)cc3)nnc12	7.43%	0.134%	5.58%	8.29%	8.53%
COc1ccc(CNC(=O)C2(C)Cn3cnc(C(=O)Nc4ccc(C)cc4)c3C(=O)N2C2CC2)cc1 (stereo not drawn)	1.22%	0%	12.4%	2.73%	4.81%
O=C(CSc1nnc2n(CCc3ccccc3)c(=O)c3ccccc3n12)Nc1ccc(F)cc1	1.4%	0%	5.56%	-4.53%	2.39%
O[C@@H]1C[C@@H](c2nc(Cc3ccc(F)cc3Cl)no2)N(Cc2ccco2)C1	-7.25%	0.286%	-1.46%	5.19%	1.74%
Cc1ccc(-c2nnn3c2nc(NCCc2c[nH]c4ccccc24)c2ccccc23)cc1	-0.099%	4.51%	-0.368%	8.8%	-1.86%
Cn1ccc(C(=O)N2CCC3(CC2)CC(=O)N(C/C=C/c2ccccc2)C3)n1	-5.56%	-7.42%	-3.09%	-8.21%	-6.66%
O=C(c1ccccc1)N1CCC2(CC(Cc3ccccc3)=NO2)C1 (stereo not drawn)	-6.73%	-8.66%	-3.85%	-12.1%	-10.3%
CC(C)OCCCNc1nc2c(S(=O)(=O)c3ccc(C(C)C)cc3)nnn2c2ccccc12	-11.8%	-0.684%	-9.84%	-14.6%	-10.8%
Cc1ccc2c(cnn2C(=O)CCCC(=O)N2CCN(c3cccc(Cl)c3)CC2)c1	7.94%	5.4%	8.91%	2.58%	0.786%
CCCn1c(=O)c2ccccc2n2c(SCC(=O)Nc3ccccc3C)nnc12	-6.83%	1.52%	3.57%	-6.03%	-1.84%
CN1C(=O)CC[C@]2(C(=O)N3CCN(c4ccccc4)CC3)CCCC[C@@H]12	-3.6%	-4.62%	-1.9%	-4.91%	-17.7%
